Assay results reported in the RNAGym collection of RNA variant scans (doi:10.1073/pnas.2313332121).
Variants at the background level are over-represented here.

B1: TPR 5TU (parent)
chain: GGAUCUUCUCGAUCUAACAAAAAAGACAAAUCUGCCACAAAGCUUGAGAGCAUCUUCGGAUGCAGAGGCGGCAGCCUUCGGUGGCGCGAUAGCGCCAACGUUCUCAACUAUGACACGCAAAACGCGUGCUCCGUUGAAUGGAGUUUAUCAUG

Variants of: B1
Assay: polymerase ribozyme fitness, log enrichment relative to wild type (log ratio); higher = more active; in vitro selection for triplet polymerase activity
In short: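 Mutant libraries for each subunit of a heterodimeric triplet polymerase ribozyme were made by PCR and then transcribed. Each library underwent one round of in vitro selection in triplicate: annealing with a biotinylated primer, the partner subunit and triplets, frozen incubation at −7 °C, gel excision of extended constructs, streptavidin-bead capture and RT-PCR. Input and output libraries were Illumina-sequenced, and only genotypes with ≥10 input reads and ≥1 read per output were kept. Fitness is the logarithm, base 2, of genotype enrichment over wild-type enrichment, computed from inverse-variance-weighted replicate averages.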

Polymerase ribozyme fitness (log ratio), ≤ -4.2:
A52U G58A A73G C93U C129A
C51G C57G C79A G80C A120C
A52C C103G
U53A G65U C85G G92U C105G C123G A150C U151A
C51U C85G A89G A98U
A52G G68U U144A
A52U U55A G94C A142C U144G A147C
U53A G59C U77G U90G A119G
C51U A106G G133U G136U
A52C C54U G83C C85U A137C
A52C G68U A73G G86U
C51G G86A
U53A A60G G71U C87A A106G
A52U U55A C93G C103G U134A U151A
A52C C54U G62U A98G A106G A115G
U53A C69A G83A A91G U101C G124U
C51A C96G A113G C116U G141U U148C
U53A U77G C85G
C51U A91U C99U U135C
A52G C63U G65A C76A G86A A120U
C51U C75G U77C G112U A150G
C51U C93U G100U C123G
C51G A73G G81A U82C A150G
A52U C93A U101G
A52G A137U
A52C U77G G81A C85A U111A A150C
A52G A113G A147C
U53A C93G A115U
C51G G86A G117U C129A
C51U C85A G117U C149G
A52G U53A A120C A122G A137U
U53A C75U C87U C99U U139C U145A A150G
C51G A52U G84C G124A C125U G126A G141A
A52G A91U C105G
C51G A60C G88A G92A
U53A G81C G84A A106G G112U
A52G C75G C85G U90G
A52U G136U
A52G G88C U146G
U53A C57G C85A A89G
C51U C72G G94U C105A A106C U135C
U53A G58A C96G C103G A115U
A52C U53A A64G C85A C96U C132U A142G
A52U G86C U104G
A52C C54G C76G C85U G140C
C51U U61A C85A G100A
A52C U56A G68A C96G C99U
U53A U56G C85U U90C
A52G C75G A107U G133C
C51A C95U C108U G141U U151C
C51A G65U G70C C93U A107G U145G
C51A U56G G58C C87G G143C
U53A C76A C87G C125G
U53A U55C G81A C85U G94C C96U G100A U134C
C51A C93U G124A A138C A142U
U53A A73U C118G G140U
C51G U56G A73G C87G G112C A115C A119U A120G G141C A150U
C51U A52C C54G G80C C87A A115C U135C
C51U C54U A91G C96U A106U U127G U135A U148A
U53A U61C G84C C85U C87G G117A A119C G141A
U53A G83A A98U U101G C131A U145A
U53G C76U G94C G126U C129A U130G G136U
C51G A52C G67A G74A G80U C149G
U53G A60G C75U C85A U134G
C51U A60U G88C C105G
U53G C63U U78A A89G C95G C96G C125A G140C
A52C U77C C116G U134G
U53A U111G
C51A G74C C76G C93G C108G A110U
A52C A73G C93U U101A C129A G152C
C51A U61G C79U G83C G94A G100A U102G
U53G A89U C96U G143C
A52G C57G A60G G67A A98U A147C
U53A U56G C93U U102G
U53A U55A C76A C96A
A52U G67U G80A U135G
C51G A52U U53A A120U U151G
C51U G68U G83A G141C
C51U G70A C87U U104A U148C
C51A C75U U82G G94U C149U
C51G G74C A91U U101A U104G U130A A142U
U53A A64G G67A C76U U78C A91C C96A C114U G133C
A52C U55A G59U C87A A91U
U53A C69U G140A
A52G C57A U77G A120C C129A U144C
C51U C75G U90A A91C C93U C114U G143C
C51U G86A G88U G141U
U53A G74A C87G A91U C105G A115C G126A
U53A C57U G84U C149U G152U
C51U A52U U78A C85A A89U C105G A121C
A52C C69A C72G C85G A113G C116G C118G G140A
U53A G86A U90G A107C G133U U151G
C51G C87U C95A C99A A107U U146G
C51A G59A A60C G83U C95A
A52C G68C C87G A91U A107G U134G
C51A C72A C108G C116U C118U
C51G U139A
U53G C79U U104A A137G
A52G A66C U90G
U53A U139C
A52G A91U U101G
C51A G70C U127G
A52G U53A U61A A91G C96G A97U G124A
U53A G88C U134G A150G
U53A C63A C85U C93G C132U
C51U U55G G58A G86C C95G
U53A G65A U77A G88U G92C
A52U U55A C79G C93U A98U U101C A110G
C51G C76U C96U G143C
C51A G92A C105U A119U
C51G C76A G84C C87G U104C U148C
A52U G62C G88A A107U U134A G143U
A52U C76U C103G G124U G143C A147C
C51U C54U G67C C76A U77C C114G
U53A G70C G86C A122U C125U
A52G C93A C95A U135G U148C
C51U U53A C85U C99G
C51G C79G
U53A U56G C57A G58C G71C U144C
U53A A66G G68A C85U A115G A120U A150C
A52G U77G U82C C87U
U53A C72A C87U C99U U101C A137U
A52U G86U A89U
C51U C76G C96G A121G A122U C129A C131A
A52U U56A C93G C96U
C51G C76A G84C
U53A C123U C125G G128A
C51G G67A A73U C87G C93G
U53A A60G G71C C85G C108U A110G
C51G G81A G92A U102G C108U U130G C149U
A52G G84A G88A A147U
C51U C96A C116A A119C A142U
A52U G74A G88C C105A
A52U U135G
U53A C63U G65A A66G G86C G117C U145G
A52G U77A C79A
U53C G68C A73G C85G G88C A137C G140C
A52G G141A C149U
C51A G94C A113C G141A
A52C U56A A89U C93A G141A U145G
C51A A66C G88C A106G C123U U151A
C51U G83C A150C
A52U C87U C149G
C51A A91C
U53A G59C U61G C76U G81A U104G
A52G C85G G100C G133U U146A
C51G A52G G86A A115U C118A G143C
U53A U56G U61A U82A C85A A115G C125U A142C
A52G C54G U148G
U53A C63U C85A C105G C131G
U53A G70C U77G
C51U G92C G112U
C51G A52U A113U C125G
U53G C54G C79A U151G
U53A G86U C99G C105G U109C C118U U134A
A52U U104A A122G G141A
A52U C57A C63U G68A C96G C125G
U53A U139A G141A
A52C U146G A150C
C51A U53A A89G C96G
C51A U55G C87U G94A G143U
A52C C85G A110C
A52C G88C
C51A C63A C103G U139G G140U
C51A G80C U135C
A52U G84U G112A A115G A138U
A52C G58C U82G G86A U134G
